For 23 molecules, percent labeling results are on record in PubChem BioAssay AID2202238 (Ras Initiative Chemistry Research Team, Frederick National …, 2025).

In this test the target is GTPase KRas (Homo sapiens) (UniProt P01116). Description: Covalent labelling of cysteine mutants by fragments, read by mass spectrometry (AID 2202238). Also on record: protein at 5 µM with 500 µM competing thiol for 1.5 h. As to conditions: KRAS G12D cysteine mutants, disulfide tethering, MALDI-TOF labeling, stronger effect = higher value, fragment at 500 µM.
[1] abbreviates: measured here: G60C mutant labeling.
Setting [2] is: measured here: G75C mutant labeling.
Setting [3] is: measured here: H94C mutant labeling.
Where [4] appears, read: measured here: I36C mutant labeling.
The mark [5] stands for this setting: measured here: L120C mutant labeling.
The mark [6] stands for this setting: measured here: M67C mutant labeling.
The mark [7] stands for this setting: measured here: M72C mutant labeling.
[8] abbreviates: measured here: N26C mutant labeling.
Setting [9] is: measured here: N86C mutant labeling.
Where [10] appears, read: measured here: P121C mutant labeling.
The mark [11] stands for this setting: measured here: S122C mutant labeling.
Where [12] appears, read: measured here: S136C mutant labeling.

Molecules are shown by their SMILES. This is one part of the list. Further columns of the screen follow, without active or inactive calls.

Sequence of UniProt P01116 (P01116 whole entry, looked up, the tested form may be a part): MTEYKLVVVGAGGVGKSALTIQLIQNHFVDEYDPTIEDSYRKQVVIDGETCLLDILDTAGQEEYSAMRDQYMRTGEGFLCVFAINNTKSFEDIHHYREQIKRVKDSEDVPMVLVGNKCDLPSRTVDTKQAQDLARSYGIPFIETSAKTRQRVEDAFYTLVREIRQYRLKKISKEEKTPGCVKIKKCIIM

`O=C(CCCc1ccc2[nH]c(=O)[nH]c2c1)NCCS`: the percent labeling was determined as 57.3% under setting [1]; 18.4% under setting [2]; 36% under setting [3]; 26.9% under setting [4]; 34.3% under setting [5]; 35% under setting [6]. The percent labeling is 43.2% under setting [7]; 50.8% under setting [8]; 28.8% under setting [9]; 29.9% under setting [10]; 31.7% under setting [11]; 41.2% under setting [12].
Take `O=C(NCCS)C(c1ccncc1)C1CCCCC1` (stereo unspecified): the percent labeling runs as follows: under setting [1], 60.5%; under setting [2], 22%; under setting [3], 35.5%; under setting [4], 32.3%; under setting [5], 35%; under setting [6], 36%. Moreover, the percent labeling is 32.1% under setting [7]; 40.3% under setting [8]; 26.7% under setting [9]; 30.5% under setting [10]; 24.3% under setting [11]; 38.7% under setting [12].
Regarding `O=C(NCCS)c1ccc(-n2ncc3ccccc32)c(Cl)c1`, the percent labeling is 21.3% under setting [1]; 8.3% under setting [2]; 12.3% under setting [3]; 5.6% under setting [4]; 8.9% under setting [5]; 6% under setting [6]. Also, the percent labeling reads like this: under setting [7], 34.7%; under setting [8], 17.6%; under setting [9], 5.3%; under setting [10], 7.8%; under setting [11], 3.9%; under setting [12], 9.5%.
Take `Cn1cc(C(=O)NC2CCN(C(=O)CCS)CC2)cn1`: the percent labeling runs as follows: under setting [2], 11.3%; under setting [3], 32.7%; under setting [4], 41.8%; under setting [5], 33.2%; under setting [6], 37.7%; under setting [7], 23.6%. The percent labeling reads like this: under setting [9], 27.9%; under setting [10], 37%; under setting [11], 37.2%; under setting [12], 46.8%.
On to `CCN(CC)C(=O)N1CCC(C(=O)NCCS)CC1`, for which the percent labeling is, setting by setting: under setting [1], 24.9%; under setting [2], 10%; under setting [3], 34.1%; under setting [4], 23.8%; under setting [5], 35.6%; under setting [6], 32.3%. Also, the percent labeling amounted to 16.4% under setting [7]; 35.2% under setting [8]; 28% under setting [9]; 34.1% under setting [10]; 35.6% under setting [11]; 48.6% under setting [12].
Turning to `CCn1c(=O)[nH]c(=O)c2c(C(=O)NCCS)cc(C3CC3)nc21`, the percent labeling is, setting by setting: under setting [1], 23.6%; under setting [2], 4.3%; under setting [3], 9.8%; under setting [4], 15%; under setting [5], 12.7%; under setting [6], 13.1%. For the same molecule, the percent labeling reads like this: under setting [7], 33.4%; under setting [8], 29.7%; under setting [9], 15.5%; under setting [10], 8.3%; under setting [11], 7.9%; under setting [12], 59%.
With `CN(C(=O)CCS)C1CS(=O)(=O)C1(C)C` (stereo unspecified), the percent labeling is, setting by setting: under setting [2], 11.2%; under setting [3], 30.1%; under setting [4], 38.6%; under setting [5], 19.2%; under setting [6], 29.3%; under setting [7], 20.6%. The percent labeling reads like this: under setting [9], 27%; under setting [10], 29.1%; under setting [11], 32.8%; under setting [12], 51.7%.
For the molecule `O=C(CCS)Nc1ccc(S(=O)(=O)CC2CCOC2)cc1` (stereo unspecified), the percent labeling is, setting by setting: under setting [2], 26.2%; under setting [3], 30%; under setting [4], 42.9%; under setting [5], 22.3%; under setting [6], 33.5%; under setting [7], 37.1%. The percent labeling amounted to 23.8% under setting [9], 22% under setting [10], 28.4% under setting [11] and 37.1% under setting [12].
On to `NC(=O)NC1CCC(NC(=O)CCS)CC1` (stereo unspecified), for which the percent labeling runs as follows: under setting [2], 13.9%; under setting [3], 32.7%; under setting [4], 32.8%; under setting [5], 26.4%; under setting [6], 31.3%; under setting [7], 18.9%. For the same molecule, the percent labeling by setting is: under setting [9], 29.6%; under setting [10], 33.3%; under setting [11], 35.7%; under setting [12], 52.2%.
As for `O=C(CCS)Nc1cccc(-c2n[nH]c3c2CCC3)c1`, the percent labeling reads like this: under setting [2], 23.3%; under setting [3], 28.2%; under setting [4], 34.5%; under setting [5], 26.5%; under setting [6], 28.5%; under setting [7], 70.1%. The percent labeling was found to be 31.5% under setting [9], 20.6% under setting [10], 14.1% under setting [11] and 38.8% under setting [12].
Take `O=C(NCCS)c1cccc2[nH]c(C(F)F)nc12`: the percent labeling came to 26% under setting [1]; 43.6% under setting [2]; 27.8% under setting [3]; 15.3% under setting [4]; 26.7% under setting [5]; 21.4% under setting [6]. Further, the percent labeling under setting [7] came out at 79.5%; the percent labeling under setting [8] came to 30%; the percent labeling under setting [9] turned out to be 13.8%; the percent labeling under setting [10] was found to be 14.2%; the percent labeling under setting [11] came to 14.5%; the percent labeling under setting [12] is 32.9%.
In the case of `O=C(NCCS)C1CCCCC1c1nc2ccccc2[nH]1` (stereo unspecified), the percent labeling under setting [1] came to 44.5%; the percent labeling under setting [2] was 21.7%; the percent labeling under setting [3] was found to be 33.2%; the percent labeling under setting [4] came to 30.1%; the percent labeling under setting [5] amounted to 30.7%; the percent labeling under setting [6] came out at 39.2%. The percent labeling by setting is: under setting [7], 29.1%; under setting [8], 38.9%; under setting [9], 29.9%; under setting [10], 23%; under setting [11], 24.4%; under setting [12], 35.3%.
In the case of `Cc1c(C(=O)NCCS)cccc1N1CCNC1=O`, the percent labeling runs as follows: under setting [1], 28.6%; under setting [2], 12.4%; under setting [3], 39.5%; under setting [4], 30.3%; under setting [5], 36.3%; under setting [6], 36.9%. In addition, the percent labeling reads like this: under setting [7], 20%; under setting [8], 31.7%; under setting [9], 28.8%; under setting [10], 38.5%; under setting [11], 31.3%; under setting [12], 50.5%.
On to `O=C(CCS)NCC1(O)CC2CCC(C2)C1` (stereo unspecified), for which the percent labeling by setting is: under setting [2], 11.9%; under setting [3], 31.8%; under setting [4], 25.5%; under setting [5], 35.1%; under setting [6], 35.5%; under setting [7], 34.9%. In addition, the percent labeling runs as follows: under setting [9], 27.3%; under setting [10], 39.2%; under setting [11], 39%; under setting [12], 51.7%.
As for `O=C(NCCS)c1cc2c(OC(F)F)cccc2[nH]1`, the percent labeling runs as follows: under setting [1], 34%; under setting [2], 10.3%; under setting [3], 22.3%; under setting [4], 17.5%; under setting [5], 20.3%; under setting [6], 11.9%. The percent labeling turned out to be 54.4% under setting [7]; 20.8% under setting [8]; 14.4% under setting [9]; 16.9% under setting [10]; 13.4% under setting [11]; 27% under setting [12].
`O=C(CCS)NC1CC(O)(C2(O)CCC2)C1` (stereo unspecified): the percent labeling by setting is: under setting [2], 0%; under setting [3], 27%; under setting [4], 35.6%; under setting [5], 24.8%; under setting [6], 26.5%; under setting [7], 12%. The molecule also returned a percent labeling under setting [9] of 12.2%, a percent labeling under setting [10] of 34.5%, a percent labeling under setting [11] of 32.6% and a percent labeling under setting [12] of 42.7%.
Turning to `Cc1oc2[nH]c(=O)n(-c3ccccc3)c(=O)c2c1C(=O)NCCS`, the percent labeling reads like this: under setting [1], 20.6%; under setting [2], 9.7%; under setting [3], 25.2%; under setting [4], 7.5%; under setting [5], 22%; under setting [6], 18.9%. Besides, the percent labeling reads like this: under setting [7], 14.3%; under setting [8], 15.4%; under setting [9], 10%; under setting [10], 14.4%; under setting [11], 24.3%; under setting [12], 20.8%.
For the molecule `O=C(CCc1c(-c2ccccc2)[nH]c2ccc(F)cc12)NCCS`, the percent labeling was found to be 44.2% under setting [1]; 15.5% under setting [2]; 19.1% under setting [3]; 13% under setting [4]; 16.2% under setting [5]; 16.5% under setting [6]. Moreover, the percent labeling is, setting by setting: under setting [7], 46.6%; under setting [8], 16.9%; under setting [9], 6.1%; under setting [10], 17%; under setting [11], 4.7%; under setting [12], 33.2%.
Molecule `CNC(=O)c1cccc(NC(=O)CCS)c1C` yielded a percent labeling under setting [2] of 9.5%; a percent labeling under setting [3] of 26.1%; a percent labeling under setting [4] of 27.4%; a percent labeling under setting [5] of 28%; a percent labeling under setting [6] of 26.6%; a percent labeling under setting [7] of 16%. Further, the percent labeling is, setting by setting: under setting [9], 23.3%; under setting [10], 28.8%; under setting [11], 31.8%; under setting [12], 43.8%.
With `O=C(Cc1coc2cc(Cl)ccc12)NCCS`, the percent labeling was 42.2% under setting [1]; 19.5% under setting [2]; 20.1% under setting [3]; 12.4% under setting [4]; 30% under setting [5]; 13.6% under setting [6]. Besides, the percent labeling under setting [7] was found to be 52.2%; the percent labeling under setting [8] turned out to be 34.5%; the percent labeling under setting [9] was 14%; the percent labeling under setting [10] was 17.9%; the percent labeling under setting [11] amounted to 10.8%; the percent labeling under setting [12] was found to be 19.6%.
On to `Cn1c(C(F)(F)F)nc2cncc(C(=O)NCCS)c21`, for which the percent labeling by setting is: under setting [1], 40.4%; under setting [2], 16.3%; under setting [3], 32.6%; under setting [4], 28.9%; under setting [5], 30.1%; under setting [6], 34.2%. For the same molecule, the percent labeling was found to be 33.4% under setting [7]; 41.5% under setting [8]; 24.5% under setting [9]; 33.4% under setting [10]; 29.6% under setting [11]; 42.2% under setting [12].
Take `O=C(CCS)N1CCCN(c2ccc(C(F)(F)F)cn2)CC1`: the percent labeling runs as follows: under setting [2], 22.6%; under setting [3], 57.4%; under setting [4], 35.5%; under setting [5], 25.3%; under setting [6], 54.1%; under setting [7], 44.8%. Besides, the percent labeling under setting [9] is 31%, the percent labeling under setting [10] was found to be 29.5%, the percent labeling under setting [11] was 26.8% and the percent labeling under setting [12] stood at 54.6%.
Regarding `Cc1nc2cc(NC(=O)CCS)ccc2n1C`, the percent labeling runs as follows: under setting [2], 11.8%; under setting [3], 26.2%; under setting [4], 26.6%; under setting [5], 26.6%; under setting [6], 29.3%; under setting [7], 27.8%. For the same molecule, the percent labeling worked out at 26.2% under setting [9], 23.1% under setting [10], 36.4% under setting [11] and 42.1% under setting [12].
